Among all 300,000 compounds or so, about 1,200 (0.4%) were called active. This list was built around the results that the source calls inconclusive (neither active nor inactive); the mix of calls is not that of the screen. Calls come from the whole dose curve; as a rule, active = well fitted inhibition curve with a large enough effect; inconclusive = small, poorly fitted or top-dose-only effect, or another doubt; inactive = no such curve, though single readings can be large or run the other way. A potency beside an inconclusive call is a rough fit, not a confirmed value.
target: Lysosomal alpha-glucosidase (Homo sapiens) (UniProt P10253); assay: qHTS Assay for Inhibitors and Activators of Human alpha-Glucosidase Cleavage of Glycogen; details: recombinant GAA, glycogen substrate, Amplex Red glucose oxidase fluorescence; activity change, negative = inhibition: at 76.4 µM (top of the series) unless noted;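 for activity change, negative = inhibition: 0% = full enzyme reaction and -100% = no-enzyme basal signal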
In short: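 qHTS, 1536-well; enzyme 4 nM final; cpd up to 77 uM; substrate bovine liver glycogen 30 ug; 50 mM citrate/phosphate pH 5.0, 0.01% Tween-20; 37 C, 40 min; Amplex Red detection 45 min RT; Hill fit → AC50.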
Potency is the fitted concentration of half-maximal effect.

| Structure (SMILES) | Potency | activity change, negative = inhibition |
| --- | --- | --- |
| Cc1cc(C(=O)N/N=C2\CCCC(C)C2)n[nH]1 (configuration not stated) | inconclusive: 11.1 µM [inhibitor, partial curve] | – |
| CCOc1ccc(S(=O)(=O)NNC(=O)c2cc3ccccc3o2)cc1 | inconclusive: 14.1 µM [inhibitor, partial curve] | – |
| C=CCN=C1N[C@@H](c2ccc(Br)cc2)C(C(=O)OC)=C(C)N1Cc1ccccc1 | inconclusive: 50.1 µM [inhibitor, single point] | – |
| COC(=O)C1=C(C)N(C)C(=O)NC1c1ccc(O)c(OC)c1 (configuration not stated) | inconclusive: 17.6 µM [inhibitor, partial curve] | – |
| Cc1cc(OCC(=O)N(Cc2ccc(N(C)C)cc2)CC2CCCO2)ccc1Cl (configuration not stated) | inactive | – |
| O=C(Nc1nc2c(s1)CN(Cc1ccccc1)CC2)c1cccc(S(=O)(=O)N2CCc3ccccc32)c1 | inconclusive: 28.2 µM [activator, single point] | – |
| Nc1c(Nc2ccccc2)c2ccccc2oc1=O | inconclusive: 28.2 µM [inhibitor, partial curve] | – |
| COCCCNC(=O)CCC(=O)NNc1nc2ccccc2c2nc(C)nn12 | inconclusive: 56.2 µM [inhibitor, partial curve, poor fit] | – |
| Cc1cc(NC(=O)NC2(C(F)(F)F)Oc3ccc(Cl)cc3O2)no1 (configuration not stated) | active: 7.08 µM | – |
| NNc1ncnc2c1cnn2-c1ccccc1 | inconclusive: 11.1 µM [inhibitor, partial curve] | – |
| CCOc1cc(C2/C(=C(/O)c3ccc(OC(C)C)cc3)C(=O)C(=O)N2CCCOC)ccc1O (configuration not stated) | inconclusive: 7.08 µM [inhibitor, full curve] | – |
| O=C(NN=C1CCCC1)c1[nH]c2ccc(Cl)cc2c1-c1ccccc1 | inconclusive: 35.5 µM [inhibitor, single point] | – |
| CC1(C)Cc2ccccc2C2=C(C(=O)N3CCCCCC3)C(=O)C(=O)N21 | inactive | – |
| COc1ccc(C(=O)N2CCCC(Nc3ccc(F)cc3)C2)c(OC)c1 (configuration not stated) | inconclusive: 5.62 µM [inhibitor, single point] | – |
| O=C(O)CCn1c(=O)sc2ccccc21 | – | inconclusive: 36.1% [activator] |
| CC(=O)NNC(=O)c1cc2sccc2s1 | inactive | – |
| COc1ccc(Nc2nc3[nH]c(=O)cc(O)c3s2)cc1 | inconclusive: 22.2 µM [inhibitor, partial curve] | – |
| CC1=Nc2ccccc2N=C(NC(=O)CSC(=S)N2CCN(C)CC2)C1c1ccccc1 (configuration not stated) | inconclusive: 50.1 µM [inhibitor, single point] | – |
| C/C(=N\Nc1ccccn1)c1ccc2c(c1)OCO2 | inconclusive: 17.8 µM [inhibitor, partial curve] | – |
| Cn1c(N)c(C(=O)COC(=O)/C=C/c2ccc(S(=O)(=O)N3CCOCC3)cc2)c(=O)n(C)c1=O | inconclusive: 50.1 µM [inhibitor, single point] | – |
| CCCC[C@]12Cc3ccccc3C(O1)c1c(cc(-c3ccccc3)oc1=O)O2 | – | inactive: -28.3% [at 15.3 µM] |
| COc1cc(CCC(O)CC(=O)CCc2ccccc2)ccc1O (configuration not stated) | active: 25.1 µM | – |
| CCCCN(C)C(=S)Nc1ccc2nc(N3CCN(CC)CC3)cc(C)c2c1 | inconclusive: 11.2 µM [inhibitor, partial curve] | – |

| Structure (SMILES) | Potency | activity change, negative = inhibition |
| --- | --- | --- |
| CCC(=O)NC(Nc1sc2c(c1C(=O)OC)CCC2)C(Cl)(Cl)Cl (configuration not stated) | inconclusive: 28.2 µM [inhibitor, single point] | – |
| COc1ccc(/C=N/Nc2nncn2N)cc1Br | inconclusive: 8.91 µM [inhibitor, partial curve] | – |
| S=c1[nH]nc(CSCc2ccccc2Cl)n1C1CCCCC1 | inconclusive: 25.1 µM [inhibitor, partial curve] | – |
| CCNc1nc(NCC)nc(N(C)N)n1 | active: 35.5 µM | – |
| O=C(NNc1ccc(Cl)cc1)c1c(F)cccc1Cl | inconclusive: 3.98 µM [inhibitor, full curve] | – |
| CCOC(=O)c1cccc(NC(=O)C(CC(C)C)N2Cc3ccccc3C2=O)c1 (configuration not stated) | inactive | – |
| O=C(O)c1ccc(N/N=C/c2cccc3cccnc23)cc1 | inconclusive: 31.6 µM [inhibitor, partial curve] | – |
| COc1ccc(N2CCN(C(CNC(=O)C(=O)NCc3cccs3)c3ccco3)CC2)cc1 (configuration not stated) | inconclusive: 31.6 µM [inhibitor, partial curve] | – |
| NNC(=O)c1ccc2nc(-c3ccc(Br)cc3)cn2c1 | inconclusive: 39.5 µM [inhibitor, single point] | – |
| Cc1ccn2c(Nc3ccc4c(c3)OCCO4)c(-c3ccc(Cl)s3)nc2c1 | inconclusive: 6.31 µM [inhibitor, full curve] | – |
| COc1cc(C(=O)Oc2c(Sc3ccc(C)cc3)c(C)nn2-c2ccccc2)cc(OC)c1OC | inconclusive: 6.31 µM [inhibitor, full curve] | – |
| COC(=O)c1c(C)sc(-c2c(-c3ccc4c(c3)OCCO4)[nH]c3c2c(=O)n(C)c(=O)n3C)c1O | inactive | – |
| Cc1c(C(=O)NN)sc(=S)n1C | inconclusive: 12.6 µM [inhibitor, partial curve] | – |
| COc1ccc(-n2cnnc2SCCC#N)cc1 | inconclusive: 8.91 µM [inhibitor, single point] | – |
| Cc1ccc(OCCn2cc(C(=S)N3CCCC3)c3ccccc32)cc1C | inactive | – |
| CN(c1ccc(Cl)cc1)S(=O)(=O)c1nnc(NC(=O)C2CCCCC2)s1 | inconclusive: 31.6 µM [inhibitor, partial curve] | – |
| Cc1cccc(-c2noc(-c3ccccc3OCC(=O)Nc3ccccc3[N+](=O)[O-])n2)c1 | inconclusive: 35.5 µM [inhibitor, partial curve] | – |
| CC1(C)CC2(CC(C)(C(=O)CSc3nc4ccccc4s3)OC2=O)C(=O)O1 (configuration not stated) | inconclusive: 50.1 µM [inhibitor, partial curve] | – |
| CCN(CCO)c1ccc(NC(=S)Nc2cccc(S(=O)(=O)N(C)C)c2)cc1 | inconclusive: 17.8 µM [inhibitor, partial curve] | – |
| CCCc1cc(-c2n[nH]c(C(=O)OCC)c2-c2cscn2)c(O)cc1O | inconclusive: 22.2 µM [inhibitor, partial curve] | – |
| CCOc1ccc(-c2ccc(SC)nn2)cc1 | inactive | – |
| Cc1ccc(NNC(=O)c2c(C)noc2C)cc1Cl | inconclusive: 4.47 µM [inhibitor, full curve] | – |
| Fc1cccc(/C=N/Nc2nc3ccccc3[nH]2)c1 | inconclusive: 6.31 µM [inhibitor, partial curve] | – |

| Structure (SMILES) | Potency | activity change, negative = inhibition |
| --- | --- | --- |
| C/C(=N\NC(=O)c1ccccc1O)c1cccc(NC(=O)c2ccccc2)c1 | inconclusive: 31.4 µM [inhibitor, single point] | – |
| CCOc1ccc(S(=O)(=O)Nc2cccc(OC)c2)c2cccnc12 | inactive | – |
| O=C(O)c1ccc(N/N=C/c2cn(Cc3ccccc3F)c3ccccc23)cc1 | inconclusive: 44.7 µM [inhibitor, partial curve] | – |
| COc1cc(/C=N/Nc2nn3cnnc3c3ccccc23)ccc1O | active: 17.6 µM | – |
| COc1ccsc1NC(=O)OCc1ccc(Cl)cc1 | inconclusive: 5.01 µM [inhibitor, single point] | – |
| Cc1cc(=O)[nH]c2ccc(S(=O)(=O)Nc3ccc(O)cc3)cc12 | active: 7.08 µM | – |
| CC(C)CCNc1ncnc2c1nnn2Cc1ccccc1 | inactive | – |
| Cc1cccc(-c2n[nH]c(=S)n2Cc2ccccc2)c1 | inconclusive: 50.1 µM [inhibitor, single point] | – |
| O=C(Nc1ccc([N+](=O)[O-])cc1)N1CCCCCC1 | inconclusive: 56.2 µM [inhibitor, partial curve, poor fit] | – |
| Cc1ccc(C(=O)N/C(=C\c2ccc(Br)cc2)c2nc(=S)[nH][nH]2)cc1 | inconclusive: 44.7 µM [inhibitor, partial curve, poor fit] | – |
| CCOc1cc(C2C(C(=O)c3ccco3)=C(O)C(=O)N2CCc2ccccc2)ccc1O (configuration not stated) | inconclusive: 22.2 µM [inhibitor, partial curve] | – |
| COc1ccc(C2=NS(=O)(=O)N(C)C(C(=O)N(C)Cc3ccccc3)=C2)cc1OC | inconclusive: 35.5 µM [inhibitor, partial curve, poor fit] | – |
| S=c1[nH]nc(-c2ccc(Br)o2)n1Cc1ccccc1 | inconclusive: 35.2 µM [inhibitor, single point] | – |
| NC(=S)N/N=C1\CC(n2nnnc2-c2ccccc2)C2COC1O2 (configuration not stated) | inconclusive: 35.5 µM [inhibitor, single point] | – |
| CSc1sc(C(=O)NN)c2c1C1(CCC2)SCCS1 | inconclusive: 15.8 µM [inhibitor, partial curve] | – |
| CCOC(=O)/C(=N\Nc1cccc(C(F)(F)F)c1)N1CCOCC1 | inconclusive: 44.7 µM [inhibitor, partial curve] | – |
| CCOc1cc(NC(=S)Nc2cccc(C)c2)c(OCC)cc1NC(=O)CC(C)C | inconclusive: 44.3 µM [inhibitor, single point] | – |
| Cc1nc(C)c(C(=O)NNS(=O)(=O)c2ccccc2)s1 | inconclusive: 22.4 µM [inhibitor, partial curve] | – |
| COc1cc(C(c2c(C)[nH][nH]c2=O)c2c(C)[nH][nH]c2=O)ccc1OC(C)C | inconclusive: 20 µM [inhibitor, partial curve] | – |
| CCOC(=O)C1=C(C)NC2=C(C(=O)CC(C)(C)C2)C1c1ccc(O)c(OCC)c1 (configuration not stated) | inconclusive: 10 µM [inhibitor, partial curve] | – |
| Cc1ccc2cc(CN(Cc3ccco3)C(=O)NCc3ccccc3)c(=O)[nH]c2c1C | inactive | – |
